The results in this text go back to the BET-seq Pho4 binding data (Le et al. 2018).

The list shows a part of the results. Values were computed here from the reads of four pooled replicates and scatter widely.

For this test, the target named is T1, Pho4 (S. cerevisiae) (UniProt P07270).
T1 sequence: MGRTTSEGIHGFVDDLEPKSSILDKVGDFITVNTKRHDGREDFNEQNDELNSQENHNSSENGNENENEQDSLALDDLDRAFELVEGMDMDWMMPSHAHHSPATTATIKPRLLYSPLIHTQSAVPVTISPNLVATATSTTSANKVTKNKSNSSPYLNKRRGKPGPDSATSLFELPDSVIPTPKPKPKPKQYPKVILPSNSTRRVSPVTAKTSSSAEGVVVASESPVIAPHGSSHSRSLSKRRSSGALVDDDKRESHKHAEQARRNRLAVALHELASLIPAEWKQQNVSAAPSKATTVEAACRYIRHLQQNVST
The experiment in a line: relative binding free energy (BET-seq); higher = weaker binding. The note with it: reference: library average.
Turning to TTTGGCACGTGGATAA, the “relative binding free energy” value was -0.13 kcal/mol.
The figure for TAGGGCACGTGTGCTA is -0.15 kcal/mol; for TGTCTCACGTGTGATA it is 0.31 kcal/mol; for CTATGCACGTGGAAGG it is 0.03 kcal/mol.
For TGCTACACGTGTGGTG, the “relative binding free energy” value was found to be 0.12 kcal/mol.
Then TTAGGCACGTGTGTGA, with -0.01 kcal/mol; and TCGGGCACGTGAGATT, with 0.04 kcal/mol; and TAATGCACGTGCGGTG, with -0.11 kcal/mol.
The figure for TCTTGCACGTGTAGGT is -0.04 kcal/mol.
Then GTATTCACGTGGGTAA, with 0.28 kcal/mol.
For the sequence TGAAGCACGTGCGCGT, the “relative binding free energy” value was -0.11 kcal/mol.
Take ATGTGCACGTGATCTG: the “relative binding free energy” value came out at 0 kcal/mol.
GTTCTCACGTGGCGGG: the “relative binding free energy” value is 0.3 kcal/mol.
The figure for TAGTACACGTGTGGTG is 0.1 kcal/mol.
Then TGTTTCACGTGAAAGT, with 0.34 kcal/mol; and AATGTCACGTGGCGTA, with 0.01 kcal/mol.
In the case of GGTGTCACGTGGGTCG, the “relative binding free energy” value stood at 0.04 kcal/mol.
The figure for TGCGTCACGTGTTTTA is 0.09 kcal/mol; for CAAGTCACGTGGGTGA it is -0.08 kcal/mol; for TAACGCACGTGGGTGT it is -0.3 kcal/mol.
The figure for ATTGTCACGTGAAAAG is 0.42 kcal/mol; for AACGTCACGTGGCGGT it is 0.04 kcal/mol.
The figure for AGTTACACGTGGGGTA is -0.05 kcal/mol; for GGATTCACGTGAGGAA it is 0.4 kcal/mol; for GTTTTCACGTGGGAAT it is 0.32 kcal/mol.
Regarding GAAGGCACGTGGTTTA, the “relative binding free energy” value was -0.25 kcal/mol.
The figure for TTAATCACGTGTGGGG is 0.19 kcal/mol; for GGGAGCACGTGATATT it is 0.12 kcal/mol.
With ATGGACACGTGACGGG, the “relative binding free energy” value worked out at 0.06 kcal/mol.
As for GTTCGCACGTGGTTGG, the “relative binding free energy” value was -0.05 kcal/mol.
Then AAGCTCACGTGTAGGG, with 0.2 kcal/mol.
The figure for ATTGCCACGTGAGATG is 0.23 kcal/mol; for AATAACACGTGTGTTG it is -0.03 kcal/mol.
Then TAATACACGTGGAGGG, with -0.04 kcal/mol; and TAATTCACGTGGGCAT, with 0.18 kcal/mol; and ATCGACACGTGTGTTT, with 0.1 kcal/mol.
Take ATGAGCACGTGATGGT: the “relative binding free energy” value is 0.01 kcal/mol.
Then AGTATCACGTGGTAGT, with 0.09 kcal/mol; and CTGTACACGTGTTTGT, with -0.06 kcal/mol.
In the case of TAGGGCACGTGTGAAA, the “relative binding free energy” value worked out at 0 kcal/mol.
The figure for AGGCGCACGTGTAGAG is -0.16 kcal/mol.
Then TGTCTCACGTGTGGGG, with 0.21 kcal/mol; and CGATGCACGTGGGAGT, with -0.12 kcal/mol; and TTTCACACGTGTCTGT, with 0.09 kcal/mol.
The figure for AGTATCACGTGGAGTT is 0.13 kcal/mol.
Turning to TCGTTCACGTGTTTGT, the “relative binding free energy” value stood at 0.27 kcal/mol.
The figure for GATTTCACGTGTAGAT is 0.32 kcal/mol.
Then TGATTCACGTGTAGGC, with 0.29 kcal/mol; and GCGTTCACGTGTATGT, with 0.23 kcal/mol; and CTGGACACGTGGGTGT, with -0.12 kcal/mol.
As to AAGTACACGTGGGTGG, the “relative binding free energy” value worked out at 0.04 kcal/mol.
The figure for GTACTCACGTGGGATA is 0.26 kcal/mol.
The figure for GGTTCCACGTGTTCGT is 0.15 kcal/mol; for TGAAACACGTGTTGGA it is 0.18 kcal/mol; for TGGAACACGTGGAAGG it is 0.11 kcal/mol.
Then ATGCGCACGTGTTGGC, with 0.07 kcal/mol; and AGATGCACGTGCTAGT, with -0.06 kcal/mol.
In the case of GTTAGCACGTGTATTG, the “relative binding free energy” value amounted to 0.11 kcal/mol.
As to ATGGTCACGTGGCGCT, the “relative binding free energy” value came out at 0.12 kcal/mol.
TGTCTCACGTGTAAAG: the “relative binding free energy” value stood at 0.39 kcal/mol.
Then GGTTTCACGTGCTTTT, with 0.4 kcal/mol.
In the case of CAGGGCACGTGGTGTC, the “relative binding free energy” value was -0.06 kcal/mol.
The figure for AGCAGCACGTGTTTAG is 0 kcal/mol; for TGTGTCACGTGTGGTA it is 0.17 kcal/mol.
The figure for TGCGACACGTGGTGTG is -0.16 kcal/mol; for TGTGTCACGTGCAGCG it is 0.02 kcal/mol; for TTCCGCACGTGTTAGG it is -0.04 kcal/mol.
Then CGGGTCACGTGGCATT, with -0.02 kcal/mol; and CGTTACACGTGTCGGG, with 0.09 kcal/mol; and TGTACCACGTGGCGGG, with -0.21 kcal/mol.
Consider CGGGACACGTGAGGGC, for which the “relative binding free energy” value was 0.17 kcal/mol.
The figure for AGGGTCACGTGTGGGC is 0.03 kcal/mol.
As for GGATTCACGTGTATAT, the “relative binding free energy” value turned out to be 0.24 kcal/mol.
The figure for CTTTACACGTGATGTG is 0.05 kcal/mol.
Then AATATCACGTGTGGCT, with 0.2 kcal/mol; and TCAGGCACGTGAGGTG, with 0.08 kcal/mol; and CTTGGCACGTGGATGG, with 0.01 kcal/mol.
Then GGCTACACGTGGTGGT, with 0 kcal/mol; and GATGTCACGTGTCGGT, with 0.1 kcal/mol; and TCTAGCACGTGGGGTG, with -0.36 kcal/mol.
Regarding CGATTCACGTGTGTGG, the “relative binding free energy” value was determined as 0.27 kcal/mol.
As for GAATGCACGTGGTCTG, the “relative binding free energy” value stood at 0.02 kcal/mol.
For TAAGTCACGTGTGGAT, the “relative binding free energy” value amounted to 0.21 kcal/mol.
The figure for TCAGGCACGTGCGTTT is -0.02 kcal/mol.
Turning to TTTAACACGTGGGGTA, the “relative binding free energy” value was -0.16 kcal/mol.
The figure for CAGTGCACGTGCTGGG is 0.04 kcal/mol; for TGGATCACGTGCGAGG it is 0.06 kcal/mol.
The figure for GTTGGCACGTGACAGG is 0.08 kcal/mol.
Then GCACGCACGTGTGGTT, with -0.02 kcal/mol; and TTTGGCACGTGGCGAG, with -0.23 kcal/mol.
With GCAGGCACGTGTTTGG, the “relative binding free energy” value is -0.09 kcal/mol.
For the sequence TACTGCACGTGTTTGT, the “relative binding free energy” value amounted to 0.05 kcal/mol.
Then GATTGCACGTGTTTTG, with 0.14 kcal/mol; and AACGGCACGTGCTGGT, with -0.13 kcal/mol.
With CGTTTCACGTGTGATG, the “relative binding free energy” value turned out to be 0.14 kcal/mol.
Then TTTGACACGTGCGGCT, with 0.04 kcal/mol; and ATGTTCACGTGTTCAT, with 0.15 kcal/mol; and ATAAACACGTGGTTTG, with -0.18 kcal/mol.
Then TTCTTCACGTGTTAAA, with 0.27 kcal/mol; and TAGGTCACGTGCTTAT, with -0.02 kcal/mol; and AGCGGCACGTGAGGAG, with 0.1 kcal/mol.
Regarding TTGTGCACGTGGTATG, the “relative binding free energy” value was -0.13 kcal/mol.
Take TAGTTCACGTGTTTAA: the “relative binding free energy” value was 0.32 kcal/mol.
Consider CGGGGCACGTGTATGC, for which the “relative binding free energy” value was -0.11 kcal/mol.
The figure for GGGTGCACGTGTGTTG is 0.07 kcal/mol; for GTTATCACGTGTGATA it is 0.1 kcal/mol.
On to AAGTTCACGTGTCATT, for which the “relative binding free energy” value worked out at 0.23 kcal/mol.
Regarding AGGTTCACGTGATGAG, the “relative binding free energy” value amounted to 0.2 kcal/mol.
Then TTTGGCACGTGAAGGG, with 0.14 kcal/mol; and TGTACCACGTGGAAGT, with -0.01 kcal/mol.
The figure for TGTGCCACGTGATCGT is 0.04 kcal/mol; for GGCTGCACGTGGTTTT it is 0.02 kcal/mol.
For the sequence AATTACACGTGTTGGT, the “relative binding free energy” value stood at 0.04 kcal/mol.
Then GAGGGCACGTGTGCCG, with -0.06 kcal/mol; and TTATACACGTGGGCAT, with -0.13 kcal/mol.
